Measurements from US20220259303A1 (ZHEJIANG DOER BIOLOGICS, published 2022).

B1: Anti-C18.2-hu19V1-Fc (Fc fusion)
chain: QVQLVESGGGLVQPGGSLRLSCAASGVDISSDVMAWYRQAPGKQREFVSGLTRGGSINYADSVKGRFTISRDNSKNTLYLQMNSLRAEDTAVYYCNAEIYTGTFYPRSYWGQGTLVTVSS[human IgG1 Fc left out]
notes: humanized variant huV1 of C18-19 fused to human IgG1 Fc, expressed in HEK293F
B2: Anti-C18.2-19-Fc (Fc fusion)
chain: B1 chain with N73F, S74A, L78V, Y79D, R86K, A87P
notes: also called Anti-C18.2-Fc fusion protein (clone C18-19)
B3: Anti-C18.2-hu19V3-Fc (Fc fusion)
chain: B1 chain with Q44G, R45L
notes: humanized variant huV3 of C18-19 fused to human IgG1 Fc, expressed in HEK293F

target: T1, CLD18A2; test: cell ELISA on CLD18A2-expressing cells, anti-human IgG Fc detection
T1 construct: also called claudin 18 splice variant A2; CHO-S-CLD18A2
Method: The Anti-C18.2-Fc fusion proteins are diluted in gradients with 1% BSA, and the HRP-Goat anti-Human IgG Fc (Novex) secondary antibody is diluted 1:20000. The cell ELISA method is the same as that described in Embodiment 3.2. The software GraphPad Prism v5.0 is used for data processing and mapping analysis. The binding curve and EC50 value of Anti-C18.2-Fc against CLD18A2 in cells are obtained to reflect the affinity of the antibody to CLD18A2.
The affinities of Anti-C18.2-hu19V1-Fc and Anti-C18.2-hu19V3-Fc are similar to that of Anti-C18.2-19-Fc, which are better than that of the positive control ch-175D10.

Binder	EC50
B1	0.82 nM
B2	0.71 nM
B3	0.41 nM

Changes are numbered by the printed parent chain.
